From the supplement of paper PMC4166925
± gives the standard deviation of the averaged measurements. The full ranking holds about 33,000 sequences; the median of “E-score (dimensionless, -0.5 to 0.5)” is about -0.049, and the highest 2% start at about 0.37. This is one part of the list.

Tested on: T1, PmTbr T-box DNA-binding domain (GST fusion)
T1 sequence: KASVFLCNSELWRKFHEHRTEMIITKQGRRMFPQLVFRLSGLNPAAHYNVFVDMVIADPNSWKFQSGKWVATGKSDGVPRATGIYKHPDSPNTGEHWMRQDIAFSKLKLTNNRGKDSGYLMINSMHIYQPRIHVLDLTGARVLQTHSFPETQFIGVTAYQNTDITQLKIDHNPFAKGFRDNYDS
Test: PBM E-score of 8-mer (E-score (dimensionless, -0.5 to 0.5)); Tbr is Tbrain of the sea star Patiria miniata (Pm) or the sea urchin Strongylocentrotus purpuratus (Sp); higher = stronger binding preference; most listed sequences are background and not binding sites
Conditions: the construct has about 5 more residues each side
Outline: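 Universal Agilent oligonucleotide arrays, made double-stranded by primer extension, were incubated with 200 nM GST-fused Tbr T-box DNA-binding domain in PBS (pH 7.5). The protein was expressed in BL21 E. coli at 20 °C and purified by glutathione affinity chromatography. After scanning and quantification, the Universal PBM Analysis Suite assigned an enrichment E-score to each ungapped 8-mer, averaged over duplicate arrays.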

Row | Sequence | PBM E-score of 8-mer
1 | CACGGACG | -0.0988 ± 0.092
2 | CGCTTGCC | 0.0749 ± 0.038
3 | CGACGTCA | 0.0829 ± 0.024
4 | CAATTAAA | -0.0976 ± 0.069
5 | AGTAAACC | -0.268 ± 0.015
6 | CGGACACA | 0.106 ± 0.11
7 | ACCGAAGT | 0.0446 ± 0.06
8 | GGGAGGAC | -0.279 ± 0.058
9 | ATGCCTCC | -0.392 ± 0.0059
10 | CCCTCAGA | 0.0287 ± 0.078
11 | AATAGTCC | -0.174 ± 0.04
12 | GAACCCCC | -0.16 ± 0.03
13 | AAAAAGTA | -0.0122 ± 0.042
14 | CCCTTTAC | -0.0272 ± 0.088
15 | AACAGTAA | -0.0744 ± 0.13
16 | AATCTGCG | 0.0216 ± 0.044
17 | ACTAGAGT | -0.0756 ± 0.027
18 | ACAGCTCT | 0.197 ± 0.025
19 | CTCTAGAG | -0.287 ± 0.016
20 | ACTGTTAA | 0.21 ± 0.045
21 | AATGGATA | -0.201 ± 0.075
22 | ACGCCCGC | 0.126 ± 0.062

Row | Sequence | PBM E-score of 8-mer
23 | AACTTTCG | 0.0665 ± 0.036
24 | CAACGATG | 0.0658 ± 0.039
25 | GATGACAC | 0.36 ± 0.02
26 | CATCGTCA | 0.157 ± 0.002
27 | GTGGGCCA | -0.191 ± 0.031
28 | GTTCAGCA | 0.127 ± 0.002
29 | AGGAAAAG | -0.104 ± 0.028
30 | CCCTCTGA | -0.181 ± 0.012
31 | GTCTGTCA | 0.105 ± 0.025
32 | ATCGAGGC | -0.106 ± 0.086
33 | ACCTGGTG | 0.2001 ± 0.0019
34 | AAAGGAGT | -0.0983 ± 0.0027
35 | GACTGAAC | -0.193 ± 0.095
36 | CGTCAGGA | 0.18 ± 0.04
37 | GATGTACA | -0.0998 ± 0.024
38 | AATCGCGG | 0.0943 ± 0.019
39 | GGTCCAAC | -0.179 ± 0.037
40 | CACCTGCC | 0.406 ± 0.021
41 | ACAGAATC | 0.136 ± 0.094
42 | AGATGTAT | -0.0375 ± 0.13
43 | TATATTAA | -0.171 ± 0.065
44 | ACTGCGAC | 0.0881 ± 0.0041

Row | Sequence | PBM E-score of 8-mer
45 | ACCGCTAG | 0.0269 ± 0.03
46 | AAACGAGG | -0.14 ± 0.02
47 | TAACTCGA | -0.184 ± 0.0027
48 | AACTTGTC | 0.34353 ± 0.00012
49 | CAGTAGCG | 0.206 ± 0.055
50 | CTAGGTAA | -0.173 ± 0.055
51 | ACACGTGA | 0.292 ± 0.017
52 | ACGCATTG | 0.123 ± 0.017
53 | AACGCGAT | 0.203 ± 0.012
54 | ATTAGAAT | -0.178 ± 0.014
55 | CGCCAGAG | -0.0266 ± 0.0061
56 | CTGCAAAA | 0.0952 ± 0.052
57 | ATTACAGC | -0.0203 ± 0.0081
58 | CAGAACCA | -0.232 ± 0.018
59 | CCGAGATC | -0.227 ± 0.026
60 | AAAAGATG | -0.119 ± 0.036
61 | GATCGTAA | -0.0965 ± 0.021
62 | CCCAACTC | -0.0345 ± 0.098
63 | CAAGGTTC | 0.0603 ± 0.055
64 | AAAACCTT | -0.155 ± 0.046
65 | GACAAGAA | 0.01 ± 0.027
66 | CATGGGCC | -0.27 ± 0.036

Row | Sequence | PBM E-score of 8-mer
67 | GACGTCGC | 0.0882 ± 0.036
68 | TACCAGTA | -0.355 ± 0.06
69 | ATATCGGC | -0.0843 ± 0.036
70 | CTATCCTC | -0.198 ± 0.037
71 | GGAAGTAC | -0.303 ± 0.038
72 | GTGCTGAA | 0.282 ± 0.022
73 | ACCGACGA | 0.0977 ± 0.038
74 | GTCCCGAC | -0.0297 ± 0.019
75 | CATTAGGA | -0.193 ± 0.0042
76 | GAAGACTC | -0.199 ± 0.022
77 | TATTAAAA | 0.0217 ± 0.078
78 | GGGTGGAA | -0.0147 ± 0.041
79 | GGTCGTAC | -0.147 ± 0.0024
80 | ACCGCGGT | 0.0196 ± 0.13
81 | AGGTAGAT | -0.0828 ± 0.0064
82 | CCCTTCCG | -0.0409 ± 0.022
83 | ATATATCC | -0.138 ± 0.025
84 | CAAGCCCC | -0.0178 ± 0.07
85 | GAGCGGCA | 0.0795 ± 0.025
86 | AACCCAAA | -0.157 ± 0.037
87 | ACTAGCTG | 0.0188 ± 0.027
88 | CAGTGACA | 0.338 ± 0.0041

Row | Sequence | PBM E-score of 8-mer
89 | ATATAAAT | -0.153 ± 0.04
90 | AGTTAGCG | 0.307 ± 0.029
91 | CCCGCGAC | 0.136 ± 0.015
92 | CACTTAGA | 0.182 ± 0.012
93 | GTAACAGA | 0.156 ± 0.0055
94 | CGTTACAA | -0.072 ± 0.034
95 | GGAACGCA | -0.19 ± 0.073
96 | GGACTCAA | -0.178 ± 0.043
97 | ATAACGAG | -0.155 ± 0.041
98 | ATTTATCA | 0.0516 ± 0.092
99 | AGGCCCGA | -0.111 ± 0.024
100 | CTCGTAAA | -0.077 ± 0.011
101 | CATGTTTC | -0.0333 ± 0.079
102 | TGATTGAA | -0.0306 ± 0.0055
103 | ACGAAAGA | -0.02407 ± 0.00016
104 | ATGACGCG | 0.0958 ± 0.023
105 | CTCACTTA | 0.3367 ± 0.0027
106 | CGCCCTAG | -0.0901 ± 0.022
107 | AACTGTCC | -0.111 ± 0.023
108 | CACGTGGA | 0.158 ± 0.052
109 | TCGCTTAA | 0.0866 ± 0.049
